Assay [1] concerns the target topoisomerase-IIβ-binding protein 1 (TopBP1), endogenous (human (endogenous in 293FT, U2OS, HeLa)) (UniProt Q92547). As to the kind of experiment: co-IP; immunoprecipitation of endogenous TopBP1 or BLM with antibodies and protein G Sepharose from 293FT cell extracts; Benzonase-treated lysate, 200 mM NaCl, 2 mM EDTA, 4°C; western blot.
Assay [2] has as its target GFP-tagged TopBP1 K1317A (BRCT7 mutant) (UniProt Q92547). As to the kind of experiment: co-IP; pull-down of GFP-tagged TopBP1 or BLM constructs (GFP-Trap agarose) from lysates of transiently transfected 293FT cells, 24 hr after transfection; also cells synchronized in S phase (Figure S3A); Benzonase-treated lysate, 200 mM NaCl, 2 mM EDTA, 4°C; western blot. A general note: In western blotting, separated proteins are transferred to a membrane and probed.

Chains of the proteins cited; added tags and fusions are not shown. Lines headed by an entry give the natural chain unless they say otherwise; changes in a name come on top.
UniProt Q92547: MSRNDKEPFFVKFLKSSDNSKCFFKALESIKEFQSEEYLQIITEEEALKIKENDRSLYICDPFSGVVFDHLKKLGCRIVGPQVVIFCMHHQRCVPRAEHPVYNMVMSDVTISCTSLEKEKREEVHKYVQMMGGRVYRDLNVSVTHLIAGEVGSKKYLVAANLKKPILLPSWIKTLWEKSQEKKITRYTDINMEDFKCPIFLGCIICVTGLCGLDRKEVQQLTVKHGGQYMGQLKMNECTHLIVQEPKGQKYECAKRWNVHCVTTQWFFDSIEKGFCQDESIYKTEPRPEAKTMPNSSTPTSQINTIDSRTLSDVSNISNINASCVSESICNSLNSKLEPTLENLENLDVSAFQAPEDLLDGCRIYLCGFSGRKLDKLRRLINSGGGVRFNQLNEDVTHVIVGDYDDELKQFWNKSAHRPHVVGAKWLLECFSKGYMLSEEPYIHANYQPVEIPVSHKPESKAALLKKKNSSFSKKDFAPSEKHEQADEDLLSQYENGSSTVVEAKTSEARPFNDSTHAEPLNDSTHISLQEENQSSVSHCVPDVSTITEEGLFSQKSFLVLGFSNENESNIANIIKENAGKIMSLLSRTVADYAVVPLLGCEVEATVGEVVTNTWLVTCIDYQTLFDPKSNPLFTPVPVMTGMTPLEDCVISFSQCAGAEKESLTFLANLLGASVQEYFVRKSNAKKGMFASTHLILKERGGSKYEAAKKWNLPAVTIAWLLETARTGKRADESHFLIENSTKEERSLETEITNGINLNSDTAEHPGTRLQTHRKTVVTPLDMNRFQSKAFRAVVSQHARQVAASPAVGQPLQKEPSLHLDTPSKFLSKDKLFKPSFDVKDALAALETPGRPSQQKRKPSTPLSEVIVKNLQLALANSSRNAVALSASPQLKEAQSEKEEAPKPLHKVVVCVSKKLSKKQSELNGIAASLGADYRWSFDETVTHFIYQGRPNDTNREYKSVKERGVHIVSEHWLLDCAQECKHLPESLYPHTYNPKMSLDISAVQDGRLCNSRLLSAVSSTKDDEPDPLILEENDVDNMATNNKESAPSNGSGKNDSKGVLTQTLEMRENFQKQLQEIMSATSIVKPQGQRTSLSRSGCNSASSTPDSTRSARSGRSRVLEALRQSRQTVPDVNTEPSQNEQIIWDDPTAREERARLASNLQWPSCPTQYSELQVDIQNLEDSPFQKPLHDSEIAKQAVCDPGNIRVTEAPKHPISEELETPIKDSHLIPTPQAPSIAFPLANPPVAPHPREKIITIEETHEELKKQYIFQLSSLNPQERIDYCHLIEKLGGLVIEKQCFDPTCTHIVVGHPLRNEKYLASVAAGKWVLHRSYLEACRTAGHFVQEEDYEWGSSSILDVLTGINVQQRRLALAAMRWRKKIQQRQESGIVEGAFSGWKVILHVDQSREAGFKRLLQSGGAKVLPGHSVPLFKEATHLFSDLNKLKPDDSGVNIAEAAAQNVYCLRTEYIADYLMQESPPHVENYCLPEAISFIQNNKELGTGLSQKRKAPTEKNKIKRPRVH
UniProt P54132: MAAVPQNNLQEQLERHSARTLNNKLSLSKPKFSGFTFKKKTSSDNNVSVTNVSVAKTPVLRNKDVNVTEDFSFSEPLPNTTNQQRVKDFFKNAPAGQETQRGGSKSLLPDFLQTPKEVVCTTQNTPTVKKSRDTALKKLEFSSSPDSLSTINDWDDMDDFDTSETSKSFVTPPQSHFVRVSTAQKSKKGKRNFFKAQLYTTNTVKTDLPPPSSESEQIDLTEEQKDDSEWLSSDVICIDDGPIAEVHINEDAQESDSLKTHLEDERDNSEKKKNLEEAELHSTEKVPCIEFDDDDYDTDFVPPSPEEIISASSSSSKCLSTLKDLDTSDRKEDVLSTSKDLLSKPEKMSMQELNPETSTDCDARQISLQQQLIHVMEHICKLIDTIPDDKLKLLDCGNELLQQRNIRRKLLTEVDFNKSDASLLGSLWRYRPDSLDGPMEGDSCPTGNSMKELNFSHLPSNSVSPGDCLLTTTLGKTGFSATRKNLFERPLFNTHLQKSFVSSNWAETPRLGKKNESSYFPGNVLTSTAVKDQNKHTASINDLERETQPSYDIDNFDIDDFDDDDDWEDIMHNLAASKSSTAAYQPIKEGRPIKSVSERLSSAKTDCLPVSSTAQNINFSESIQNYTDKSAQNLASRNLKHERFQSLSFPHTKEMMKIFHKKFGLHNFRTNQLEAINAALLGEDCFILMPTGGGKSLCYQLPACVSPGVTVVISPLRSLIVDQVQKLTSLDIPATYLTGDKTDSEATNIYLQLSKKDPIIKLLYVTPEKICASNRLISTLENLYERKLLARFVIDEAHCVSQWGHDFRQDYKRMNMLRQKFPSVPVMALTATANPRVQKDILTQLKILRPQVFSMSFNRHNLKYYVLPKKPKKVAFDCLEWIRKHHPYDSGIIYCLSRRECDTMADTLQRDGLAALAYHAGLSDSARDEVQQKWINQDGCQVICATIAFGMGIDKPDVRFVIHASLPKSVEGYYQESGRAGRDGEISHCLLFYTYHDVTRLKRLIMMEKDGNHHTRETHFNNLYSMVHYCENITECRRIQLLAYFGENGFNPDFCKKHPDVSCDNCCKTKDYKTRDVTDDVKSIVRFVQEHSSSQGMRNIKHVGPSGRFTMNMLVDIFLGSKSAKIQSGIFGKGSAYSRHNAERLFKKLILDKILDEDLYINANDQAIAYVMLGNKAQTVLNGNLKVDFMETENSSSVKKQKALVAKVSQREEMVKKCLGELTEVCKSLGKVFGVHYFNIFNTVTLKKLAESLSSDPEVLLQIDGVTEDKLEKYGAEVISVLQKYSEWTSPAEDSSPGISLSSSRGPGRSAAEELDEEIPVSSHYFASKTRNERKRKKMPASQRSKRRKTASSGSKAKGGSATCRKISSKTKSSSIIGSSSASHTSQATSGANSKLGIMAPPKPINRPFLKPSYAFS
UniProt O60934: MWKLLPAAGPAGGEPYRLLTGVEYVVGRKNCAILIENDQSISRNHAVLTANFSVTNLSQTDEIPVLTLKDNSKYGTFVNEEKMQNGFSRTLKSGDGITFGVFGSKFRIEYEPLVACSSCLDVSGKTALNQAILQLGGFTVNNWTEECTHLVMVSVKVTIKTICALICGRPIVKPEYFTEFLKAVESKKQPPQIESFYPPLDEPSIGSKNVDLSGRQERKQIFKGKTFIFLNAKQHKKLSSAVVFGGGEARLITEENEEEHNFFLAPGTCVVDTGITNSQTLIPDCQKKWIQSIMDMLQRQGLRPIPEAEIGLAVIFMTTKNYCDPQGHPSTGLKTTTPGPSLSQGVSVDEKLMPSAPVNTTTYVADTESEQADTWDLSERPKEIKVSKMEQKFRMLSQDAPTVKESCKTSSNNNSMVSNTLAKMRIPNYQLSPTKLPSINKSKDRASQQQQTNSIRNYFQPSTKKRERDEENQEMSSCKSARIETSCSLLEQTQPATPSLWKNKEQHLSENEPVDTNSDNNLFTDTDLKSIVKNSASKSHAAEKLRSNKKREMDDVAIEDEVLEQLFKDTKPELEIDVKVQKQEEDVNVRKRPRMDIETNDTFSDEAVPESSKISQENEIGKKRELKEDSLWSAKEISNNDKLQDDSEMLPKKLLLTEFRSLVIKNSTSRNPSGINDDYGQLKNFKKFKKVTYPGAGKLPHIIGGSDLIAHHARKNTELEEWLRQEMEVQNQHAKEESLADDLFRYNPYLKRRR

Assay [3] deals with GFP-tagged TopBP1 wild-type (UniProt Q92547). Described as above.
Assay [4] addresses TopBP1 W711R (BRCT5 mutant) (UniProt Q92547). The description is as above.
The target in assay [5] is GFP-tagged TopBP1 K704A (BRCT5 mutant) (UniProt Q92547). Described as above.
Assay [6] addresses GFP-tagged TopBP1 K154A (BRCT1 mutant) (UniProt Q92547). The assay is described as above.

No constants are given. Whether binding was seen depends on the method and setting. Binding seen in cells or lysates may run through a third protein. Some results given as binding are weak or reduced against the parent protein; the word gives no strength.

Take “Bloom syndrome helicase BLM, endogenous (from UniProt P54132 1-1417)”: the binding result is listed as “binds” in assay [1]; “binds” in assay [2]; “binds” in assay [3]; “no binding” in assay [4]; “no binding” in assay [5]; “binds” in assay [6].

Take NBS1 (from UniProt O60934 1-754): the binding result in assay [3] is given as “binds”; in assay [4], “binds”; in assay [5], “binds”; in assay [6], “no binding”.

These data come from PMC4374139.
